Reference: article PMC5884809, “ETV2-TET1/TET2 Complexes Induce Endothelial Cell-Specific Robo4 Expression via Promoter Demethylation”
No constants are given. Whether binding was seen depends on the method and setting. In cells and extracts the contact can be indirect. Some entries that bind do so weakly or less than the wild type.

Sequences of proteins named here, by UniProt entry; tags and fusion partners are left off.
UniProt Q8NFU7: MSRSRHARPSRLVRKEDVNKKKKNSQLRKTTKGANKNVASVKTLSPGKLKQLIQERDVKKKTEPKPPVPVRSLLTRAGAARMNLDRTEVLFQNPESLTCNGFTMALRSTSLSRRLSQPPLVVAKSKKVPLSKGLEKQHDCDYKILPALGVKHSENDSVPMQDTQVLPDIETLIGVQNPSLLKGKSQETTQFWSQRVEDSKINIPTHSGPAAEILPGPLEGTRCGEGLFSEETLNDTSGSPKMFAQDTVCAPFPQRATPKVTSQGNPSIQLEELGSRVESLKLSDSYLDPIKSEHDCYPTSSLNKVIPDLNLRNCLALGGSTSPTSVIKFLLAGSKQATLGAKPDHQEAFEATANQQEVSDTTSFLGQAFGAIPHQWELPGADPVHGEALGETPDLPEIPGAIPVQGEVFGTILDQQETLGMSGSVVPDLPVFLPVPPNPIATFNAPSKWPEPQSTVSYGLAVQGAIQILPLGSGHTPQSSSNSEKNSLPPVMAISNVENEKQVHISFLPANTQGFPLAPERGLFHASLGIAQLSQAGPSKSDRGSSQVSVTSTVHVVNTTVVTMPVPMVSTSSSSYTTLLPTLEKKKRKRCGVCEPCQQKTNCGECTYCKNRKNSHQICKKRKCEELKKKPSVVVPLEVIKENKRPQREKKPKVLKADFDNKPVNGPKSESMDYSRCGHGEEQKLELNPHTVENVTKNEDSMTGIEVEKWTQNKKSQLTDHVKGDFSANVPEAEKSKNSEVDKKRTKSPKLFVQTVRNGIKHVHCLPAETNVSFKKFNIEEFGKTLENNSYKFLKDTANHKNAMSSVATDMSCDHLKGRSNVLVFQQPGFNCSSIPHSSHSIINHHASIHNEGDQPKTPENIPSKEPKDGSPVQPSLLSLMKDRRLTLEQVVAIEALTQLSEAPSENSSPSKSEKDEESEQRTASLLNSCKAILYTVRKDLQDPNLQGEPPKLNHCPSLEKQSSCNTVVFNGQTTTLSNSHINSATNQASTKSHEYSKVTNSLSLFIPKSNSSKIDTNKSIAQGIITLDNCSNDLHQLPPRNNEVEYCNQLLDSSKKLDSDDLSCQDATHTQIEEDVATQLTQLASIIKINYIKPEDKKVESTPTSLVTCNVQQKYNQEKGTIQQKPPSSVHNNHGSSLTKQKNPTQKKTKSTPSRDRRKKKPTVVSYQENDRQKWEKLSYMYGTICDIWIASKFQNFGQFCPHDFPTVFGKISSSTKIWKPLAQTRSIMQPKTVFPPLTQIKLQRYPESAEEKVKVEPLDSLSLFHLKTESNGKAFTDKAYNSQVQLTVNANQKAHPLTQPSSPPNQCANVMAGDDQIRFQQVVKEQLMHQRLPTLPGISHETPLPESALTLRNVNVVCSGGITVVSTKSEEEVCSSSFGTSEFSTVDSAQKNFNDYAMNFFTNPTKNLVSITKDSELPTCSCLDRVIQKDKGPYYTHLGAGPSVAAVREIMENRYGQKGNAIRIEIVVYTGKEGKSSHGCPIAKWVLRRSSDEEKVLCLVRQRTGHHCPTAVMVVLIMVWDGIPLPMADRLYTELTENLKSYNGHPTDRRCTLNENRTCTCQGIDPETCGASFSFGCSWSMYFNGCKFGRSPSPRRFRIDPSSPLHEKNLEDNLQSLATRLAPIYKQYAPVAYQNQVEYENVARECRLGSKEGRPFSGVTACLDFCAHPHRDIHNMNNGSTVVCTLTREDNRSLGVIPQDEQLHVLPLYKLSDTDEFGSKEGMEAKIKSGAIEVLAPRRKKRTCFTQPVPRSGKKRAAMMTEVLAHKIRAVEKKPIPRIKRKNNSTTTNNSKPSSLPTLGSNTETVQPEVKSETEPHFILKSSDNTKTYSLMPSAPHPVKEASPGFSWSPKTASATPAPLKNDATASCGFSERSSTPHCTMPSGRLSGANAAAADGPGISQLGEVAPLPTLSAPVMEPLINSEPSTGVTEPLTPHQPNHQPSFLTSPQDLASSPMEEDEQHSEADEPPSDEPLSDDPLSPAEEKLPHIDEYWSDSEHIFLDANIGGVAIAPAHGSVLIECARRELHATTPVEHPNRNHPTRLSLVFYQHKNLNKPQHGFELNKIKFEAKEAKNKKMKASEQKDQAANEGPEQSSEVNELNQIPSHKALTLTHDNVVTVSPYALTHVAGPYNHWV

B1: ERG (protein, UniProt P11308 1-479)
chain: MASTIKEALSVVSEDQSLFECAYGTPHLAKTEMTASSSSDYGQTSKMSPRVPQQDWLSQPPARVTIKMECNPSQVNGSRNSPDECSVAKGGKMVGSPDTVGMNYGSYMEEKHMPPPNMTTNERRVIVPADPTLWSTDHVRQWLEWAVKEYGLPDVNILLFQNIDGKELCKMTKDDFQRLTPSYNADILLSHLHYLRETPLPHLTSDDVDKALQNSPRLMHARNTGGAAFIFPNTSVYPEATQRITTRPDLPYEPPRRSAWTGHGHPTPQSKAAQPSPSTVPKTEDQRPQLDPYQILGPTSSRLANPGSGQIQLWQFLLELLSDSSNSSCITWEGTNGEFKMTDPDEVARRWGERKSKPNMNYDKLSRALRYYYDKNIMTKVHGKRYAYKFDFHGIAQALQPHPPESSLYKYPSDLPYMGSYHAHPQKMNFVAPHPPALPVTSSSFFAAPNPYWNSPTGGIYPNTRLPTSHMPSHLGTYY
B2: ETV2 (protein, UniProt O00321 1-342)
chain: MDLWNWDEASPQEVPPGNKLAGLEGAKLGFCFPDLALQGDTPTATAETCWKGTSSSLASFPQLDWGSALLHPEVPWGAEPDSQALPWSGDWTDMACTAWDSWSGASQTLGPAPLGPGPIPAAGSEGAAGQNCVPVAGEATSWSRAQAAGSNTSWDCSVGPDGDTYWGSGLGGEPRTDCTISWGGPAGPDCTTSWNPGLHAGGTTSLKRYQSSALTVCSEPSPQSDRASLARCPKTNHRGPIQLWQFLLELLHDGARSSCIRWTGNSREFQLCDPKEVARLWGERKRKPGMNYEKLSRGLRYYYRRDIVRKSGGRKYTYRFGGRVPSLAYPDCAGGGRGAETQ
B3: FLI-1 (protein, UniProt Q01543 1-452)
chain: MDGTIKEALSVVSDDQSLFDSAYGAAAHLPKADMTASGSPDYGQPHKINPLPPQQEWINQPVRVNVKREYDHMNGSRESPVDCSVSKCSKLVGGGESNPMNYNSYMDEKNGPPPPNMTTNERRVIVPADPTLWTQEHVRQWLEWAIKEYSLMEIDTSFFQNMDGKELCKMNKEDFLRATTLYNTEVLLSHLSYLRESSLLAYNTTSHTDQSSRLSVKEDPSYDSVRRGAWGNNMNSGLNKSPPLGGAQTISKNTEQRPQPDPYQILGPTSSRLANPGSGQIQLWQFLLELLSDSANASCITWEGTNGEFKMTDPDEVARRWGERKSKPNMNYDKLSRALRYYYDKNIMTKVHGKRYAYKFDFHGIAQALQPHPTESSMYKYPSDISYMPSYHAHQQKVNFVPPHPSSMPVTSSSFFGAASQYWTSPTGGIYPNPNVPRHPNTHVPSHLGSYY
B4: GABPα (protein, UniProt Q06546 1-454)
chain: MTKREAEELIEIEIDGTEKAECTEESIVEQTYAPAECVSQAIDINEPIGNLKKLLEPRLQCSLDAHEICLQDIQLDPERSLFDQGVKTDGTVQLSVQVISYQGIEPKLNILEIVKPADTVEVVIDPDAHHAESEAHLVEEAQVITLDGTKHITTISDETSEQVTRWAAALEGYRKEQERLGIPYDPIQWSTDQVLHWVVWVMKEFSMTDIDLTTLNISGRELCSLNQEDFFQRVPRGEILWSHLELLRKYVLASQEQQMNEIVTIDQPVQIIPASVQSATPTTIKVINSSAKAAKVQRAPRISGEDRSSPGNRTGNNGQIQLWQFLLELLTDKDARDCISWVGDEGEFKLNQPELVAQKWGQRKNKPTMNYEKLSRALRYYYDGDMICKVQGKRFVYKFVCDLKTLIGYSAAELNRLVTECEQKKLAKMQLHGIAQPVTAVALATASLQTEKDN

The binders below were run against TET2-FLAG (UniProt Q6N021) (assay: co-IP; COS-7 cells expressing TET1-FLAG or TET2-FLAG (adenovirus) with an ETS protein (adenovirus or plasmid), 48 h; lysis in 50 mmol/L Tris-HCl pH 7.4, 150 mmol/L NaCl, 1% Triton X-100, 1 mmol/L EDTA; anti-FLAG immunoprecipitation, elution with FLAG peptide, western blot for FLAG and the ETS proteins).

| binding | Binder |
| --- | --- |
| binds | B1 |
| binds | B2 |
| binds | B3 |
| no binding | B4 |

These binders were tested against TET1-FLAG (UniProt Q8NFU7) in the same assay as above.

| binding | Binder |
| --- | --- |
| no binding | B1 |
| binds | B2 |
| no binding | B3 |
| no binding | B4 |
